Reference: US9023857B2, “Substituted 6-(2-aminobenzylamino)purine derivatives, their use as medicaments and preparations containing these compounds” (Univerzita Palackeho V Olomouci, priority 2009, dated 2015)

biological target: CDK1/cyclin B (Homo sapiens, UniProt P06493); experiment: CDK inhibition assay, CDK1/cyclin B; conditions: not given

| SMILES | IC50 |
| --- | --- |
| CCC(CO)Nc1nc(NCc2ccccc2N)c2ncn(C)c2n1 (stereo not drawn) [Compound 5] | 0.09 µM |
| Cn1cnc2c(NCc3ccccc3N)nc(NCC(C)(C)O)nc21 [Compound 8] | 0.04 µM |
| COc1cccc(CNc2nc(NC3CCC(N)CC3)nc3c2ncn3C)c1N (stereo not drawn) [Compound 46] | 0.5 µM |
| CCn1cnc2c(NCc3ccccc3N)nc(NC3CCC(N)CC3)nc21 (stereo not drawn) [Compound 59] | 0.6 µM |
| CC(C)n1cnc2c(NCc3ccccc3N)nc(NC3CCC(N)CC3)nc21 (stereo not drawn) [Compound 102, N^6-(2-aminobenzyl)-N^2-(4-aminocyclohexyl)-9-isopropyl-9H-purine-2,6-diamine] | 0.1 µM |
| CCC(Nc1nc(NCc2ccccc2N)c2ncn(C(C)C)c2n1)C(C)O (stereo not drawn) [Compound 114] | 0.05 µM |
| CCC(CO)Nc1nc(NCc2cc(F)ccc2N)c2ncn(C(C)C)c2n1 (stereo not drawn) [Compound 128] | 0.07 µM |

biological target: CDK9/cyclin T (Homo sapiens, UniProt P50750); experiment: CDK inhibition assay, CDK9/cyclin T; conditions: not given

| SMILES | IC50 |
| --- | --- |
| CCC(CO)Nc1nc(NCc2ccccc2N)c2ncn(C)c2n1 (stereo not drawn) [Compound 5] | 0.004 µM |
| Cn1cnc2c(NCc3ccccc3N)nc(NCC(C)(C)O)nc21 [Compound 8] | 0.001 µM |
| COc1cccc(CNc2nc(NC3CCC(N)CC3)nc3c2ncn3C)c1N (stereo not drawn) [Compound 46] | 0.05 µM |
| CCn1cnc2c(NCc3ccccc3N)nc(NC3CCC(N)CC3)nc21 (stereo not drawn) [Compound 59] | 0.04 µM |
| CC(C)n1cnc2c(NCc3ccccc3N)nc(NC3CCC(N)CC3)nc21 (stereo not drawn) [Compound 102, N^6-(2-aminobenzyl)-N^2-(4-aminocyclohexyl)-9-isopropyl-9H-purine-2,6-diamine] | 0.004 µM |
| CCC(Nc1nc(NCc2ccccc2N)c2ncn(C(C)C)c2n1)C(C)O (stereo not drawn) [Compound 114] | 0.0008 µM |
| CCC(CO)Nc1nc(NCc2cc(F)ccc2N)c2ncn(C(C)C)c2n1 (stereo not drawn) [Compound 128] | 0.0009 µM |

tested on: breast carcinoma MCF7; experiment: In vitro cytotoxic activity (Calcein AM, 72 hours), MCF7; conditions: Homo sapiens, MCF7, 72 h, read-out: Cytotoxicity IC50 MCF7

| SMILES | IC50 |
| --- | --- |
| CCC(CO)Nc1nc(NCc2ccccc2N)c2ncn(C)c2n1 (stereo not drawn) [Compound 5] | 2 µM |
| Cn1cnc2c(NCc3ccccc3N)nc(NCC(C)(C)O)nc21 [Compound 8] | 1.8 µM |
| COc1cccc(CNc2nc(NC3CCC(N)CC3)nc3c2ncn3C)c1N (stereo not drawn) [Compound 46] | 13 µM |
| CCn1cnc2c(NCc3ccccc3N)nc(NC3CCC(N)CC3)nc21 (stereo not drawn) [Compound 59] | 14 µM |
| CC(C)n1cnc2c(NCc3ccccc3N)nc(NC3CCC(N)CC3)nc21 (stereo not drawn) [Compound 102, N^6-(2-aminobenzyl)-N^2-(4-aminocyclohexyl)-9-isopropyl-9H-purine-2,6-diamine] | 5.5 µM |
| CCC(Nc1nc(NCc2ccccc2N)c2ncn(C(C)C)c2n1)C(C)O (stereo not drawn) [Compound 114] | 11 µM |
| CCC(CO)Nc1nc(NCc2cc(F)ccc2N)c2ncn(C(C)C)c2n1 (stereo not drawn) [Compound 128] | 2.9 µM |

tested on: cervical carcinoma cells HELA; experiment: In vitro cytotoxic activity (Calcein AM, 72 hours), HELA; conditions: Homo sapiens, read-out: Cytotoxicity IC50 HeLa

| SMILES | IC50 |
| --- | --- |
| CCC(CO)Nc1nc(NCc2ccccc2N)c2ncn(C)c2n1 (stereo not drawn) [Compound 5] | 2 µM |
| Cn1cnc2c(NCc3ccccc3N)nc(NCC(C)(C)O)nc21 [Compound 8] | 1.3 µM |
| COc1cccc(CNc2nc(NC3CCC(N)CC3)nc3c2ncn3C)c1N (stereo not drawn) [Compound 46] | 18 µM |
| CCn1cnc2c(NCc3ccccc3N)nc(NC3CCC(N)CC3)nc21 (stereo not drawn) [Compound 59] | 20 µM |
| CC(C)n1cnc2c(NCc3ccccc3N)nc(NC3CCC(N)CC3)nc21 (stereo not drawn) [Compound 102, N^6-(2-aminobenzyl)-N^2-(4-aminocyclohexyl)-9-isopropyl-9H-purine-2,6-diamine] | 16 µM |
| CCC(Nc1nc(NCc2ccccc2N)c2ncn(C(C)C)c2n1)C(C)O (stereo not drawn) [Compound 114] | 17 µM |
| CCC(CO)Nc1nc(NCc2cc(F)ccc2N)c2ncn(C(C)C)c2n1 (stereo not drawn) [Compound 128] | 3.2 µM |

tested on: p53-responsive reporter pRGCΔfoslacZ in human melanoma cell line Arn8; experiment: p53-dependent transcriptional activity, β-galactosidase reporter in Arn8 cells; conditions: concentration inducing maximum of β-galactosidase activity (p53-responsive reporter)

| SMILES | Max. β-Gal. Activtity Conc. |
| --- | --- |
| CCC(CO)Nc1nc(NCc2ccccc2N)c2ncn(C)c2n1 (stereo not drawn) [Compound 5] | 29 µM |
| Cn1cnc2c(NCc3ccccc3N)nc(NCC(C)(C)O)nc21 [Compound 8] | 24 µM |
| COc1cccc(CNc2nc(NC3CCC(N)CC3)nc3c2ncn3C)c1N (stereo not drawn) [Compound 46] | 32 µM |
| CCn1cnc2c(NCc3ccccc3N)nc(NC3CCC(N)CC3)nc21 (stereo not drawn) [Compound 59] | 33 µM |
| CC(C)n1cnc2c(NCc3ccccc3N)nc(NC3CCC(N)CC3)nc21 (stereo not drawn) [Compound 102, N^6-(2-aminobenzyl)-N^2-(4-aminocyclohexyl)-9-isopropyl-9H-purine-2,6-diamine] | 13 µM |
| CCC(Nc1nc(NCc2ccccc2N)c2ncn(C(C)C)c2n1)C(C)O (stereo not drawn) [Compound 114] | 3 µM |
| CCC(CO)Nc1nc(NCc2cc(F)ccc2N)c2ncn(C(C)C)c2n1 (stereo not drawn) [Compound 128] | 4 µM |

tested on: human malignant melanoma G 361; experiment: In vitro cytotoxic activity (Calcein AM, 72 hours), G 361; conditions: G-361, 72 h, read-out: Cytotoxicity IC50 G361

| SMILES | IC50 |
| --- | --- |
| CCC(CO)Nc1nc(NCc2ccccc2N)c2ncn(C)c2n1 (stereo not drawn) [Compound 5] | 3 µM |
| Cn1cnc2c(NCc3ccccc3N)nc(NCC(C)(C)O)nc21 [Compound 8] | 1.7 µM |
| COc1cccc(CNc2nc(NC3CCC(N)CC3)nc3c2ncn3C)c1N (stereo not drawn) [Compound 46] | 13 µM |
| CCn1cnc2c(NCc3ccccc3N)nc(NC3CCC(N)CC3)nc21 (stereo not drawn) [Compound 59] | 15 µM |
| CC(C)n1cnc2c(NCc3ccccc3N)nc(NC3CCC(N)CC3)nc21 (stereo not drawn) [Compound 102, N^6-(2-aminobenzyl)-N^2-(4-aminocyclohexyl)-9-isopropyl-9H-purine-2,6-diamine] | 17 µM |
| CCC(Nc1nc(NCc2ccccc2N)c2ncn(C(C)C)c2n1)C(C)O (stereo not drawn) [Compound 114] | 15 µM |
| CCC(CO)Nc1nc(NCc2cc(F)ccc2N)c2ncn(C(C)C)c2n1 (stereo not drawn) [Compound 128] | 12 µM |

tested on: human T-lymphoblastoid leukaemic cell line CEM; experiment: In vitro cytotoxic activity (Calcein AM, 72 hours), CEM; conditions: read-out: Cytotoxicity IC50 CEM

| SMILES | IC50 |
| --- | --- |
| CCC(CO)Nc1nc(NCc2ccccc2N)c2ncn(C)c2n1 (stereo not drawn) [Compound 5] | 3 µM |
| Cn1cnc2c(NCc3ccccc3N)nc(NCC(C)(C)O)nc21 [Compound 8] | 0.6 µM |
| COc1cccc(CNc2nc(NC3CCC(N)CC3)nc3c2ncn3C)c1N (stereo not drawn) [Compound 46] | 13 µM |
| CCn1cnc2c(NCc3ccccc3N)nc(NC3CCC(N)CC3)nc21 (stereo not drawn) [Compound 59] | 10 µM |
| CC(C)n1cnc2c(NCc3ccccc3N)nc(NC3CCC(N)CC3)nc21 (stereo not drawn) [Compound 102, N^6-(2-aminobenzyl)-N^2-(4-aminocyclohexyl)-9-isopropyl-9H-purine-2,6-diamine] | 9 µM |
| CCC(Nc1nc(NCc2ccccc2N)c2ncn(C(C)C)c2n1)C(C)O (stereo not drawn) [Compound 114] | 17 µM |
| CCC(CO)Nc1nc(NCc2cc(F)ccc2N)c2ncn(C(C)C)c2n1 (stereo not drawn) [Compound 128] | 6.2 µM |

tested on: human erythroleukaemia K562; experiment: In vitro cytotoxic activity (Calcein AM, 72 hours), K562; conditions: K562, 72 h, read-out: Cytotoxicity IC50 K-562

| SMILES | IC50 |
| --- | --- |
| CCC(CO)Nc1nc(NCc2ccccc2N)c2ncn(C)c2n1 (stereo not drawn) [Compound 5] | 6 µM |
| Cn1cnc2c(NCc3ccccc3N)nc(NCC(C)(C)O)nc21 [Compound 8] | 3.4 µM |
| COc1cccc(CNc2nc(NC3CCC(N)CC3)nc3c2ncn3C)c1N (stereo not drawn) [Compound 46] | 27 µM |
| CCn1cnc2c(NCc3ccccc3N)nc(NC3CCC(N)CC3)nc21 (stereo not drawn) [Compound 59] | 31 µM |
| CC(C)n1cnc2c(NCc3ccccc3N)nc(NC3CCC(N)CC3)nc21 (stereo not drawn) [Compound 102, N^6-(2-aminobenzyl)-N^2-(4-aminocyclohexyl)-9-isopropyl-9H-purine-2,6-diamine] | 20 µM |
| CCC(Nc1nc(NCc2ccccc2N)c2ncn(C(C)C)c2n1)C(C)O (stereo not drawn) [Compound 114] | 28 µM |
| CCC(CO)Nc1nc(NCc2cc(F)ccc2N)c2ncn(C(C)C)c2n1 (stereo not drawn) [Compound 128] | 10.2 µM |

biological target: CDK2/cyclin E (Homo sapiens, UniProt P24941); experiment: CDK inhibition assay, CDK2/cyclin E; conditions: not given

| SMILES | IC50 |
| --- | --- |
| CCC(CO)Nc1nc(NCc2ccccc2N)c2ncn(C)c2n1 (stereo not drawn) [Compound 5] | 0.03 µM |
| Cn1cnc2c(NCc3ccccc3N)nc(NCC(C)(C)O)nc21 [Compound 8] | 0.02 µM |
| COc1cccc(CNc2nc(NC3CCC(N)CC3)nc3c2ncn3C)c1N (stereo not drawn) [Compound 46] | 0.3 µM |
| CCn1cnc2c(NCc3ccccc3N)nc(NC3CCC(N)CC3)nc21 (stereo not drawn) [Compound 59] | 0.2 µM |
| CC(C)n1cnc2c(NCc3ccccc3N)nc(NC3CCC(N)CC3)nc21 (stereo not drawn) [Compound 102, N^6-(2-aminobenzyl)-N^2-(4-aminocyclohexyl)-9-isopropyl-9H-purine-2,6-diamine] | 0.08 µM |
| CCC(Nc1nc(NCc2ccccc2N)c2ncn(C(C)C)c2n1)C(C)O (stereo not drawn) [Compound 114] | 0.01 µM |
| CCC(CO)Nc1nc(NCc2cc(F)ccc2N)c2ncn(C(C)C)c2n1 (stereo not drawn) [Compound 128] | 0.008 µM |

tested on: promyelocytic leukemia HL 60; experiment: In vitro cytotoxic activity (Calcein AM, 72 hours), HL 60; conditions: Homo sapiens, HL-60, 72 h, read-out: Cytotoxicity IC50 HL60

| SMILES | IC50 |
| --- | --- |
| CCC(CO)Nc1nc(NCc2ccccc2N)c2ncn(C)c2n1 (stereo not drawn) [Compound 5] | 8 µM |
| Cn1cnc2c(NCc3ccccc3N)nc(NCC(C)(C)O)nc21 [Compound 8] | 2.8 µM |
| COc1cccc(CNc2nc(NC3CCC(N)CC3)nc3c2ncn3C)c1N (stereo not drawn) [Compound 46] | 28 µM |
| CCn1cnc2c(NCc3ccccc3N)nc(NC3CCC(N)CC3)nc21 (stereo not drawn) [Compound 59] | 29 µM |
| CC(C)n1cnc2c(NCc3ccccc3N)nc(NC3CCC(N)CC3)nc21 (stereo not drawn) [Compound 102, N^6-(2-aminobenzyl)-N^2-(4-aminocyclohexyl)-9-isopropyl-9H-purine-2,6-diamine] | 32 µM |
| CCC(Nc1nc(NCc2ccccc2N)c2ncn(C(C)C)c2n1)C(C)O (stereo not drawn) [Compound 114] | 34 µM |
| CCC(CO)Nc1nc(NCc2cc(F)ccc2N)c2ncn(C(C)C)c2n1 (stereo not drawn) [Compound 128] | 8.5 µM |

tested on: human osteogenic sarcoma HOS; experiment: In vitro cytotoxic activity (Calcein AM, 72 hours), HOS; conditions: read-out: Cytotoxicity IC50 HOS

| SMILES | IC50 |
| --- | --- |
| CCC(CO)Nc1nc(NCc2ccccc2N)c2ncn(C)c2n1 (stereo not drawn) [Compound 5] | 4 µM |
| Cn1cnc2c(NCc3ccccc3N)nc(NCC(C)(C)O)nc21 [Compound 8] | 1.1 µM |
| COc1cccc(CNc2nc(NC3CCC(N)CC3)nc3c2ncn3C)c1N (stereo not drawn) [Compound 46] | 19 µM |
| CCn1cnc2c(NCc3ccccc3N)nc(NC3CCC(N)CC3)nc21 (stereo not drawn) [Compound 59] | 17 µM |
| CC(C)n1cnc2c(NCc3ccccc3N)nc(NC3CCC(N)CC3)nc21 (stereo not drawn) [Compound 102, N^6-(2-aminobenzyl)-N^2-(4-aminocyclohexyl)-9-isopropyl-9H-purine-2,6-diamine] | 44 µM |
| CCC(Nc1nc(NCc2ccccc2N)c2ncn(C(C)C)c2n1)C(C)O (stereo not drawn) [Compound 114] | 19 µM |
| CCC(CO)Nc1nc(NCc2cc(F)ccc2N)c2ncn(C(C)C)c2n1 (stereo not drawn) [Compound 128] | 10.8 µM |

tested on: not listed separately; experiment: In vitro cytotoxic activity (Calcein AM, 72 hours), BJ; conditions: human, BJ normal fibroblasts

| SMILES | IC50 at 72 h |
| --- | --- |
| CCC(CO)Nc1nc(NCc2ccccc2N)c2ncn(C)c2n1 (stereo not drawn) [Compound 5] | > 167 µM |
| Cn1cnc2c(NCc3ccccc3N)nc(NCC(C)(C)O)nc21 [Compound 8] | > 167 µM |
| COc1cccc(CNc2nc(NC3CCC(N)CC3)nc3c2ncn3C)c1N (stereo not drawn) [Compound 46] | > 167 µM |
| CCn1cnc2c(NCc3ccccc3N)nc(NC3CCC(N)CC3)nc21 (stereo not drawn) [Compound 59] | > 167 µM |
| CC(C)n1cnc2c(NCc3ccccc3N)nc(NC3CCC(N)CC3)nc21 (stereo not drawn) [Compound 102, N^6-(2-aminobenzyl)-N^2-(4-aminocyclohexyl)-9-isopropyl-9H-purine-2,6-diamine] | > 167 µM |
| CCC(Nc1nc(NCc2ccccc2N)c2ncn(C(C)C)c2n1)C(C)O (stereo not drawn) [Compound 114] | > 167 µM |
| CCC(CO)Nc1nc(NCc2cc(F)ccc2N)c2ncn(C(C)C)c2n1 (stereo not drawn) [Compound 128] | > 167 µM |
